Measured values published in PubChem BioAssay AID504832 (National Center for Advancing Translational Sciences (NCATS), 2011).
In all, about 310,000 compounds went through this assay and about 18,000 (5.8%) were called active. The inconclusive results got no clear call from the source; some entries with a clear call stand among them for comparison. Calls follow the shape of the dose curve; as a rule, active = well fitted inhibition curve with a large enough effect; inconclusive = small, poorly fitted or top-dose-only effect, or another doubt; inactive = no such curve, though single readings can be large or run the other way. Potencies of inconclusive entries are left out as doubtful fits.

Test: Primary qHTS for delayed death inhibitors of the malarial parasite plastid, 48 hour incubation
Conditions: P. falciparum luciferase growth in erythrocytes; series mostly up to 28.7 µM
Excerpt: The goal of this screen is to discover new antimalarial compounds that act by inhibiting the development of the apicoplast in the malarial parasite Plasmodium falciparum. The biochemical processes that make this organelle essential for erythrocytic stage parasites are not well understood. However, antibiotics such as azithromycin and tetracycline, which target the apicoplast translational machinery, have a potent antimalarial effect.
We have developed a cell-based assay that measures parasite growth based on the expression of an integrated copy of a firefly luciferase reporter. To detect small molecules that cause this "delayed death" phenotype, erythrocytes infected with the luciferase-expressing parasites were incubated with compounds for either one or two generations, corresponding to 48 and 96 hours, respectively. Compounds that inhibit parasite growth in the second generation, but not the first, should be enriched in antimalarials that target the apicoplast. Growth inhibition is detected by a decrease in luciferase activity.
Assay Provider: David Fidock and Eric Ekland, Columbia University
Keywords: NIH Roadmap, MLPCN, MLI, MLSMR, qHTS, NCGC, qHTS, malaria, luciferase, viability
Four microliters of culture medium (RPMI 1640 with 0.5% w/v Albumax (GIBCO), 24 mM sodium bicarbonate and 10 ug/mL gentamycin) were dispensed by a Multi-drop Combi into white solid 1536-well plates (Grenier) and 23 nL compound was added by a pin tool. Four microliters of infected erythrocytes (2% hematocrit, 0.1% parasitemia final concentration) in culture medium were dispensed and the plates incubated for 48 hours at 37 C in 5% CO2. Two microliters of luciferase detection reagent was added and luminescence was detected by a ViewLux (PerkinElmer) reader.
Potency is read from the fitted curve at half-maximal effect; tags tell the direction and shape of the fitted curve.

Row | SMILES | Potency
1 | Cc1ccc(S(=O)(=O)N2CCCN(S(=O)(=O)c3ccc4c(c3)OCCO4)CC2)cc1 | inconclusive [inhibitor, single point]
2 | O=C(CCS(=O)(=O)c1ccccc1)Nc1ccccc1F | inactive
3 | CN(C)c1ccc(C(=C2C=CC(=[N+](C)C)C=C2)c2ccc(N(C)C)cc2)cc1 | active: 0.301 µM
4 | CCCCc1nc(SCC(=O)N2CCCCC2)c2c(=O)n(C)c(=O)n(C)c2n1 | inconclusive [inhibitor, single point]
5 | Cc1c(NC(=O)Nc2ccccc2Cl)c(=O)n(-c2ccccc2)n1C | inconclusive [inhibitor, full curve, poor fit]
6 | NS(=O)(=O)c1ccc(CCNC(=O)Nc2ccc(Cl)c(Cl)c2)cc1 | inactive
7 | COc1ccc(OCC(O)CN2CCOCC2)cc1 (centres undefined) | inconclusive [inhibitor, partial curve, poor fit]
8 | CCC(C)(C)NC(=O)C(c1sccc1C)N(Cc1ccco1)C(=O)c1csnn1 (centres undefined) | inconclusive [inhibitor, partial curve, poor fit]
9 | Cc1ccc2c(c1)c1nnc(SCC(=O)N3CCCc4ccccc43)nc1n2CC(=O)O | inactive
10 | Cc1ccc(N2CN(CCC3=CCCCC3)CNC2=S)cc1 | inconclusive [inhibitor, single point]
11 | C=CCOc1ccccc1CN(CCc1ccccc1)C(=O)c1cccc(S(C)(=O)=O)c1 | inconclusive [inhibitor, single point]
12 | Cn1cc(/C=C(\NC(=O)c2ccccc2Cl)C(=O)NCCN2CCOCC2)c2ccccc21 | inconclusive [inhibitor, single point]
13 | CC(=O)[C@H]1CC[C@H]2[C@@H]3CC=C4C[C@@H](O)CC[C@]4(C)[C@H]3CC[C@]12C | inconclusive [inhibitor, single point]
14 | COc1ccc(/C=N/Nc2cc(C)nc3ccc(OC)cc23)c(OC)c1 | inconclusive [inhibitor, full curve]
15 | COc1ccc(N=Cc2[nH]c3ccccc3c2O)cc1 | inactive
16 | Cc1cccc(NC(=O)CSc2nnc(CCC(=O)Nc3ccc(C)c(Cl)c3)n2C)c1 | inconclusive [inhibitor, single point]
17 | CCc1ccc(NC(=O)CSc2nc3cc(C(=O)OC)ccc3c(=O)n2CC2CCCO2)cc1 (centres undefined) | inconclusive [inhibitor, full curve, poor fit]
18 | O=C(NCCOCc1ccccc1)C(c1ccccc1)c1ccccc1 | inconclusive [inhibitor, partial curve]
19 | O=C(Nc1ccc(C(=O)N2CCOCC2)cc1)c1cc(-c2cccnc2)nc2ccc(Br)cc12 | inconclusive [inhibitor, single point]
20 | O=[N+]([O-])c1cc(S(=O)(=O)NCCN2CCOCC2)ccc1Sc1nnnn1-c1ccccc1 | active: 13.1 µM
21 | CCOc1ccc(CCNC(=O)c2ccc3c(=O)[nH]c4c(C(=O)NC(C)C)sc(=S)n4c3c2)cc1 | inconclusive [inhibitor, partial curve]
22 | COc1ccc2[nH]c3c(=O)n(CCN4CCOCC4)cnc3c2c1 | inactive
23 | CCCCNC(=O)Nc1ccc2c(c1)N(C)C(=O)c1ccccc1S2 | inconclusive [inhibitor, single point]

Row | SMILES | Potency
24 | CCCCn1ccnc1C(=O)c1cccc(S(=O)(=O)N2c3ccccc3CC2C)c1 (centres undefined) | inconclusive [inhibitor, single point]
25 | CC(C)OCCCn1c(-c2ccc(Br)cc2)c[nH]c1=S | inconclusive [inhibitor, partial curve, poor fit]
26 | CCCCC(=O)NC(c1ccco1)c1cc(Cl)c2cccnc2c1O (centres undefined) | inconclusive [inhibitor, partial curve, poor fit]
27 | Cc1ccc(C)c(Cn2c(=O)c3c(nc4n3CCN4Cc3ccco3)n(C)c2=O)c1 | active: 8.28 µM
28 | c1ccc(CCSc2nccn2-c2ccccc2)cc1 | inactive
29 | CC(C)N(C(=O)Cn1cc(SCC(=O)N2CCCC2)c2ccccc21)C(C)C | inconclusive [inhibitor, partial curve, poor fit]
30 | Cc1ccc2[nH]c3c(NCc4ccccc4)ncnc3c2c1 | inconclusive [inhibitor, full curve]
31 | CC(C)c1nc(CNC(=O)CC2C(=O)NCCN2Cc2ccc(F)cc2Cl)cs1 (centres undefined) | inconclusive [inhibitor, single point]
32 | Cc1c(Cl)c(C(=O)N2CCCc3ccccc32)nn1C | inconclusive [inhibitor, full curve, poor fit]
33 | CC(C)C[C@@H](C(=O)NCC1CCCO1)N1C(=O)N2CCc3c([nH]c4ccccc34)[C@@]2(C)C1=O (some centres undefined) | inconclusive [inhibitor, single point]
34 | COc1ccc(C(=O)N2CCN(C3CCCCC3)CC2)c(OC)c1 | inactive
35 | COc1ccc(NCc2ccccc2[N+](=O)[O-])cc1OC | inconclusive [inhibitor, single point]
36 | CCC(=O)c1ccc2c(c1)N(CCCN1CCN(CCO)CC1)c1ccccc1S2 | active: 2.69 µM
37 | COc1ccc(CC2c3cc(OC)c(OC)cc3CC[N+]2(C)CCC(=O)OCCCCCOC(=O)CC[N+]2(C)CCc3cc(OC)c(OC)cc3C2Cc2ccc(OC)c(OC)c2)cc1OC (centres undefined) | inconclusive [inhibitor, partial curve, poor fit]
38 | O=C(CN1CCCCC1)Nc1ccc(C(F)(F)F)cc1Cl | inactive
39 | Cc1ccc(S(=O)(=O)N2CCOCC2)cc1NC(=O)COc1cccc(-n2cnnn2)c1 | inconclusive [inhibitor, single point]
40 | CC(C)(C)C(=O)NC(=S)NNC(=O)c1ccc(Cl)cc1Cl | inconclusive [inhibitor, single point]
41 | CCN(CC)CC(O)c1ccc(C2CCCC2)cc1 (centres undefined) | active: 10.4 µM
42 | O=C(Nc1ccccc1-c1nc2ccccc2s1)c1cccnc1 | inactive
43 | O=C(CSCc1ccc([N+](=O)[O-])cc1)NC1CCCCCC1 | inactive
44 | COc1ccccc1C(C)Nc1nc(-c2cccnc2)nc2ccccc12 (centres undefined) | active: 13.1 µM
45 | O=C(CN1CCN(c2ccccn2)CC1)N(c1ccccc1)c1ccc2ccccc2c1 | active: 11.7 µM
46 | COC(=O)c1ccc(C23CC4(C2)[C@H](CN(Cc2ccc(C(F)(F)F)cc2)[C@@H]4c2ccccc2)C3c2ccc(C(F)(F)F)cc2)cc1 (some centres undefined) | inconclusive [inhibitor, partial curve, poor fit]

Row | SMILES | Potency
47 | COc1ccc(-c2n[nH]c(C)c2-c2cnn(-c3ccccc3)c2)c(O)c1C | inactive
48 | COc1ccccc1N=Cc1nc(-c2ccccc2)oc1OC(C)=O | inactive
49 | CCCc1cc(=O)[nH]c(SCC(=O)N2CC3(C)CC2CC(C)(C)C3)n1 (centres undefined) | inconclusive [inhibitor, single point]
50 | CCc1n(CC(O)COCc2ccccc2)c2ccccc2[n+]1C (centres undefined) | inconclusive [inhibitor, single point]
51 | COc1ccc(C(C)=O)cc1COC(=O)CNC(=O)c1cc(C)cc(C)c1 | inactive
52 | CCCn1cnc2scc(-c3ccc(C)c(C)c3)c2c1=O | inactive
53 | C=CCN(C(=O)CCc1ccccc1OC)c1nc(-c2ccc(S(C)(=O)=O)cc2)cs1 | inconclusive [inhibitor, full curve]
54 | c1cn2c(NC3CCCCC3)c(-c3ccc(SC4CCCCC4)cc3)nc2cn1 | active: 3.7 µM
55 | O=C1CCCc2oc3c(c21)CCCC3 | inactive
56 | CSCCC(NC(=O)COc1ccccc1)C(=O)N1CCCCCC1 (centres undefined) | inconclusive [inhibitor, single point]
57 | COC(=O)C1=CN(CCCN2CCCC2=O)C=C(C(=O)OC)C1c1cccs1 | inconclusive [inhibitor, partial curve]
58 | COc1cc(CN(C(=S)NCC(=O)NC2CCCC2)C2CCCC2)cc(OC)c1OC | inconclusive [inhibitor, single point]
59 | Cc1ccccc1/C(N)=N/O | inactive
60 | CC(C)N(C(=O)Cn1c(-c2cccnc2)ccc(C#N)c1=O)C(C)C | inconclusive [inhibitor, full curve]
61 | COc1ccc(C(=O)N2c3ccccc3C=CC2C#N)cc1 (centres undefined) | inactive
62 | COc1cccc(NC(=O)CN(C)C(=O)C23CC4CC(CC(Cl)(C4)C2)C3)c1 | inconclusive [inhibitor, single point]
63 | CC(C)(C)c1cc(Br)c(O)c(N=Nc2ccc(S(=O)(=O)N3CCOCC3)cc2)c1 | active: 11.7 µM
64 | CCCCNC(=O)c1nn2c(C(F)(F)F)cc(-c3ccccc3)nc2c1Br | inconclusive [inhibitor, single point]
65 | FC(F)(F)c1cccc(-c2nnc(-c3ccccc3)c(N3CCOCC3)n2)c1 | inconclusive [inhibitor, single point]
66 | CCOc1cc(C(=O)N/N=C/c2ccsc2)cc(OCC)c1OCC | inactive
67 | CC1CCN(S(=O)(=O)c2cc(C(=O)N3CCN(c4ncccn4)CC3)ccc2Br)CC1 | inconclusive [inhibitor, single point]
68 | Oc1ccc(NCc2ccccc2OCc2ccccc2)cc1 | inconclusive [inhibitor, single point]
69 | CCCNc1nc(C)cc(-c2cc(C(=O)NC3CCCC3)on2)n1 | inconclusive [inhibitor, partial curve, poor fit]
